Several values for one entry are separate records, joined by “and”; a condition that tells them apart may be missing. Equal values may be shown once. The whole screen tested about 410,000 compounds, of which about 5,000 (1.2%) were called active. The shares of active, inactive and inconclusive entries below differ from those in the screen. Calls follow the shape of the dose curve; as a rule, active = well fitted inhibition curve with a large enough effect; inconclusive = small, poorly fitted or top-dose-only effect; inactive = no such curve, though single readings can be large or run the other way. Potencies beside an inconclusive call are fits to weak or partial responses and may not hold up.
Assay: qHTS for Inhibitors of TGF-b; also: nearly all actives have a fitted effect of over 65% in size
Conditions: HepG2 CAGA-GFP TGF-b/SMAD3 reporter, GFP fluorescence, 18 h, TGF-beta stimulated, 500 pg/mL final; series mostly up to 46.1 µM
Method in brief: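 GFP signal (ex488/em500-530) from TGF-beta-stimulated HEPG2 CAGA-GFP cells, 500 pg/mL final, 18 h at 37 degrees C in DMEM plus 1% FBS, normalized to unstimulated and DMSO-stimulated controls.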
Potency is read from the fitted curve at half-maximal effect; tags tell the direction and shape of the fitted curve.

Compound	Potency
Nc1ccc(-c2cc3ccccc3c(=O)o2)cc1	inconclusive: 0.355 µM [inhibitor, full curve, poor fit]
Cc1cc(=O)[nH]c(SCC(=O)Nc2ccc(F)cc2)c1C#N	inconclusive: 10 µM [inhibitor, partial curve, poor fit]
NC(=O)[C@H]1CC2(CC(c3cccc(NC(=O)COc4ccc(Cl)cc4)c3)=NO2)CN1C(=O)CC(c1ccccc1)c1ccccc1 (some centres undefined)	inconclusive: 25.1 µM [inhibitor, single point]
CCCN(CCC)C(=O)C(Cc1ccccc1)NS(=O)(=O)c1ccc2c(c1)c(=O)n(C)c(=O)n2C (centres undefined)	inconclusive: 15.8 µM [inhibitor, partial curve, poor fit]
O=C(NCc1ccc(C(F)(F)F)cc1)c1cccc2c(-c3cccnc3)coc12	inconclusive: 35.5 µM [inhibitor, single point]
COc1ccc(-n2c(C)cc(C3=NNC(=NC4CC4)SC3)c2C)cc1	inconclusive: 35.5 µM [inhibitor, single point]
Cc1cccc(N2CCN(C(=O)C3CCN(c4ncnc5c4nc4n5CCCCC4)CC3)CC2C)c1 (centres undefined)	inconclusive: 35.5 µM [inhibitor, single point] and inconclusive: 10 µM [inhibitor, partial curve, poor fit]
O=C1CCCC2=C1C(c1cccs1)n1nc(SCc3ccccc3F)nc1N2 (centres undefined)	inconclusive: 0.112 µM [inhibitor, full curve, poor fit]
CC1CCCN(c2nc3c(c(=O)[nH]c(=O)n3C)n2Cc2ccccc2Cl)C1 (centres undefined)	inconclusive: 11.2 µM [inhibitor, partial curve]
COc1cc(Nc2ncc3c(n2)CCN(Cc2cccc(C)c2)C3)cc(OC)c1	inconclusive: 5.01 µM [inhibitor, partial curve, poor fit]
COc1ccc(Nc2c[nH]c(=O)[nH]c2=O)cc1	inconclusive: 35.5 µM [inhibitor, single point]
COc1cccc(NC(=O)C(OC(=O)c2ccc([N+](=O)[O-])o2)c2ccccc2)c1 (centres undefined)	inconclusive: 35.5 µM [inhibitor, single point]
NS(=O)(=O)c1ccc(CCNCc2cc(Br)ccc2OCc2ccccc2F)cc1	inconclusive: 35.5 µM [inhibitor, single point]
CS(=O)(=O)N(CC(=O)N1CCN(c2ccccc2F)CC1)c1cc(C(F)(F)F)ccc1Cl	inactive
CCC1CC=CC2C1C(=O)N(Cc1ccccc1)C2c1ccc(C(F)(F)F)cc1 (centres undefined)	inconclusive: 35.5 µM [inhibitor, single point]
COc1ccc([N+](=O)[O-])cc1NC1CCN(C(=O)c2cccs2)CC1	inactive
O=C(Oc1c(Br)cc([N+](=O)[O-])cc1Br)c1cccnc1	inconclusive: 35.5 µM [inhibitor, single point]
Cc1cccc(C)c1NC(=O)Cn1nnc(C(=O)NCc2ccc(F)cc2)c1N	inconclusive: 3.16 µM [inhibitor, single point]
O=c1c(-c2nnc(SCc3ccc(Cl)cc3)o2)cccn1Cc1ccccc1	inconclusive: 22.4 µM [inhibitor, single point]
CCc1cc(-c2[nH]ncc2-c2ccc([N+](=O)[O-])cc2)c(O)cc1OC	active: 12.6 µM

Compound	Potency
CCc1ccc(OCCn2c(C3CC(=O)N(Cc4ccc(F)cc4)C3)nc3ccccc32)cc1 (centres undefined)	inconclusive: 11.2 µM [inhibitor, partial curve, poor fit]
CCc1ccccc1-n1nnc(-c2nsc(NC(=O)c3ccc(C)c(C)c3)n2)c1C	active: 10 µM
CC(C)(C)Cc1c(-c2cccc(Br)c2)nc2ccc(Cl)cn12	inconclusive: 3.16 µM [inhibitor, single point]
CC(=O)Nc1c(Cl)cc([N+](=O)[O-])c2ccccc12	inconclusive: 31.6 µM [inhibitor, single point]
CCOC(=O)Cc1ccc(NC(=O)N(Cc2ccc(CC)cc2)Cc2cn[nH]c2-c2ccc(OC)cc2)cc1	inconclusive: 35.5 µM [inhibitor, single point]
COc1ccc(CNC(=O)c2c(C)nc3ccccn23)cc1	inconclusive: 22.4 µM [inhibitor, partial curve, poor fit]
CCOc1ccc(CCN2C(=O)C(=O)N([C@@H](CC(C)C)CN3CCC[C@@H]3CN3C(=O)C(=O)NC[C@@H]3Cc3ccccc3)C[C@@H]2Cc2ccc(O)cc2)cc1	inconclusive: 35.5 µM [inhibitor, single point]
COc1cccc(C(=O)Nc2nc(-c3ccc(Br)cc3)ns2)c1	inconclusive: 22.4 µM [inhibitor, single point]
COc1ccc(NC(=S)NCCC(c2ccccc2)c2ccccc2)c(OC)c1	inconclusive: 14.1 µM [inhibitor, single point]
Cc1ccc(S(=O)(=O)N2CCN(Cc3nc4ccc(C)cc4o3)CC2)c(C)c1	inconclusive: 14.1 µM [inhibitor, single point]
COc1ccc(CCNC(=O)C2CC(=O)N(c3ccc(C(C)(C)C)cc3)C2)cc1OC (centres undefined)	inconclusive: 11.2 µM [inhibitor, single point]
CCC(CC)NC(=O)c1nn(Cc2ccccc2)c(=O)c2ccccc12	inconclusive: 10 µM [inhibitor, partial curve, poor fit]
Oc1ccc[n+](/C=C\c2ccccc2)c1	inconclusive: 5.62 µM [inhibitor, single point]
Cc1cc(C(=O)Nc2sc3c(c2C#N)CCC(C)C3)no1 (centres undefined)	inactive
Cc1ccccc1CNc1ncnc2cc(Cl)ccc12	inactive
COc1ccc2c(c1)[nH]c1c(=O)n(CCC3=CCCCC3)cnc12	inactive
CCN(CC)CCNCc1cc(Br)ccc1OCC(=O)NCc1ccccc1	inactive
O=C1CC(=O)OC(c2ccc([N+](=O)[O-])cc2)O1	inconclusive: 35.5 µM [inhibitor, single point]
CC(C)(C)NC(=O)NC(=O)COC(=O)COc1ccc(Cl)cc1Cl	inactive

— PubChem BioAssay AID588855 (National Center for Advancing Translational Sciences (NCATS), 2011)
